Biological target: T1, GM-CSF cognate receptor on TF-1 cells (human, UniProt P15509 23-400; P32927 17-897)
T1 sequence (looked up) 1: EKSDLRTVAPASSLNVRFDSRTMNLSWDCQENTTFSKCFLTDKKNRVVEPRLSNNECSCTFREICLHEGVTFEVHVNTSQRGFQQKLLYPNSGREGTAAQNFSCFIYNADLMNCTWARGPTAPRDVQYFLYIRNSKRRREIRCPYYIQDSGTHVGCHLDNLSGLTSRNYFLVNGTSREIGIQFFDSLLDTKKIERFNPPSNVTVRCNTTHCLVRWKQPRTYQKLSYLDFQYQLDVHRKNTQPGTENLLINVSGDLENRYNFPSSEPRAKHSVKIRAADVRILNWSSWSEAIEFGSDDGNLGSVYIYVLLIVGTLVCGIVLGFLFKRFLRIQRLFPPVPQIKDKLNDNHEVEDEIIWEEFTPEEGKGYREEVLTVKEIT
T1 sequence (looked up) 2: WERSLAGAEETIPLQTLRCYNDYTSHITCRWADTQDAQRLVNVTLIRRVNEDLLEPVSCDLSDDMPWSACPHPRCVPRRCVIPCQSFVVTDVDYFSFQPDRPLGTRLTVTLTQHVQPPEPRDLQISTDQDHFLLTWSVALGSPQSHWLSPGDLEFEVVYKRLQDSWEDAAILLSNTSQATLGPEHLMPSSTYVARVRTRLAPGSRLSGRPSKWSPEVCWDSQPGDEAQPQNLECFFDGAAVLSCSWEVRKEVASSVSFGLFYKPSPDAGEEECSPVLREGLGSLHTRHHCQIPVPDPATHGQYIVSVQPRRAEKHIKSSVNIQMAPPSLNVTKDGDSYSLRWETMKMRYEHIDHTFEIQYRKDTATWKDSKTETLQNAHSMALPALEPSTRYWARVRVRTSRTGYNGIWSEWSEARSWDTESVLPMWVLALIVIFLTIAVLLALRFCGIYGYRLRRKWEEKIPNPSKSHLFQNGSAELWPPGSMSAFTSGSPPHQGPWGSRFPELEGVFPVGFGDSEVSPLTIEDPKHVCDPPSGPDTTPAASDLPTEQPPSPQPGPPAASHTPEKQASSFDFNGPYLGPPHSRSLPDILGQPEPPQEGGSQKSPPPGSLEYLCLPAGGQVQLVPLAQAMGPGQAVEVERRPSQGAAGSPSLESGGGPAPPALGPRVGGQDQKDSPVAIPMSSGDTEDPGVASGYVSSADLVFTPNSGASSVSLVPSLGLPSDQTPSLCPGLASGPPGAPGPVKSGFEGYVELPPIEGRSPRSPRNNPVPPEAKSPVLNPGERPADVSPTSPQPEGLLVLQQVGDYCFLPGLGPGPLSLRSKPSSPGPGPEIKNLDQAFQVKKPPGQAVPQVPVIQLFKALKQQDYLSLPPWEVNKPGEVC
Assay: cell-based or functional assay

- EC50 (read off the curve), TF-1 cell proliferation without human serum albumin: ~4 pM
B1: LEUKINE (sargramostim) (ligand)
chain: not shown

— patent US20250230210A1 (PARTNER THERAPEUTICS, published 2025)
